# Lines with a small IC50 respond at low doses; a fit beyond the top or the lowest dose is shown as a bound at that dose. For AUC the same curve is integrated over the 256-fold range of doses and scaled to a fraction; the more sensitive the line, the further below 1. The top dose, if marked as inferred, comes from the curve model; the source does not state it.
# Columns and labels:
# PD-173074 = compound: CCN(CC)CCCCNc1ncc2cc(-c3cc(OC)cc(OC)c3)c(NC(=O)NC(C)(C)C)nc2n1 [PD-173074]; experiment: Viability of human cancer cell lines after 72 h of drug (GDSC screen); conditions: top dose 2 µM; top dose inferred
# Description: (§1)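 Human cancer cell lines in 384-well plates, medium with 10% serum, drug for 72 h over a 256-fold dose range (nine 2-fold or five 4-fold steps up to the top dose). Adherent lines were fixed and stained with the nucleic acid dye Syto60, suspension lines read with resazurin; signal relative to control wells, capped at 0 and 100%. One two-parameter sigmoid per drug and line, fitted in a mixed model over all curves with the slope shared within a line.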
# SB590885 = compound: CN(C)CCOc1ccc(-c2nc(-c3ccncc3)c(-c3ccc4c(c3)CC/C4=N\O)[nH]2)cc1 [SB590885]; experiment: as above; conditions: top dose 5 µM; top dose inferred
# Description: as §1
Cell Line,AUC (PD-173074),IC50 (PD-173074) [nM],AUC (SB590885),IC50 (SB590885) [nM]
"NCI-H2087 (lung adenocarcinoma, semi-adherent)",0.983,> 2000,0.984,> 5000
"NCI-H2172 (non-small cell lung carcinoma, adherent)",0.979,> 2000,0.983,> 5000
"OVCAR-3 (ovary, adherent)",0.955,> 2000,0.966,> 5000
"COR-L23 (large cell lung carcinoma, adherent)",0.987,> 2000,0.962,> 5000
"A427 (non-small cell lung carcinoma, adherent)",0.896,> 2000,0.862,4370
"GMS-10 (glioma, adherent)",0.988,> 2000,0.988,> 5000
"HCT-15 (large intestine, adherent)",0.987,> 2000,0.987,> 5000
"CAPAN-1 (pancreas, adherent)",0.987,> 2000,0.987,> 5000
"G-292 Clone A141B1 (osteosarcoma, adherent)",0.647,407,0.959,> 5000
"BPH-1 (prostate, adherent)",0.974,> 2000,0.982,> 5000
"RCC-MF (kidney, adherent)",0.98,> 2000,0.953,> 5000
"VM-CUB-1 (bladder, adherent)",0.985,> 2000,0.976,> 5000
"K2 (melanoma, adherent)",0.971,> 2000,0.797,3180
"JHH-4 (liver, adherent)",0.955,> 2000,0.987,> 5000
"CAL-72 (osteosarcoma, adherent)",0.818,1390,0.973,> 5000
"OE19 (oesophagus, adherent)",0.974,> 2000,0.916,> 5000
"NCI-H1755 (lung adenocarcinoma, adherent)",0.968,> 2000,0.975,> 5000
"SW1783 (glioma, adherent)",0.983,> 2000,0.987,> 5000
"NCI-H2347 (lung adenocarcinoma, adherent)",0.983,> 2000,0.973,> 5000
"BT-20 (breast, adherent)",0.984,> 2000,0.984,> 5000
"SK-MEL-3 (melanoma, adherent)",0.984,> 2000,0.784,2500
"KYSE-150 (oesophagus, adherent)",0.98,> 2000,0.99,> 5000
"U-266 (myeloma, semi-adherent)",0.973,> 2000,0.952,> 5000
"NCI-H630 (large intestine, adherent)",0.985,> 2000,0.988,> 5000
"KNS-62 (lung squamous cell carcinoma, adherent)",0.977,> 2000,0.868,> 5000

Cell Line,AUC (PD-173074),IC50 (PD-173074) [nM],AUC (SB590885),IC50 (SB590885) [nM]
"MDA-MB-453 (breast, adherent)",0.949,> 2000,0.976,> 5000
"OVISE (ovary, adherent)",0.917,> 2000,0.864,> 5000
"EMC-BAC-1 (lung adenocarcinoma, adherent)",0.965,> 2000,0.961,> 5000
"ESO26 (oesophagus, adherent)",0.989,> 2000,0.989,> 5000
"PCI-6A (head and neck, adherent)",0.969,> 2000,0.945,> 5000
"KYSE-50 (oesophagus, adherent)",0.987,> 2000,0.99,> 5000
"MDA-MB-436 (breast, adherent)",0.983,> 2000,0.984,> 5000
"IHH-4 (thyroid, semi-adherent)",0.993,> 2000,0.848,2650
"22RV1 (prostate, adherent)",0.978,> 2000,0.96,> 5000
"SK-N-SH (neuroblastoma, adherent)",0.974,> 2000,0.986,> 5000
"RCC-JW (kidney, adherent)",0.984,> 2000,0.986,> 5000
"Ca9-22 (head and neck, adherent)",0.964,> 2000,0.98,> 5000
"TOV-21G (ovary, adherent)",0.958,> 2000,0.962,> 5000
"RCC-ER (kidney, adherent)",0.977,> 2000,0.986,> 5000
"CL-40 (large intestine, adherent)",0.968,> 2000,0.97,> 5000
"NCI-H1944 (lung adenocarcinoma, adherent)",0.985,> 2000,0.985,> 5000
"SW982 (soft tissue, adherent)",0.982,> 2000,0.891,> 5000
"CHSA0011 (chondrosarcoma, adherent)",0.859,> 2000,0.98,> 5000
"HCC38 (breast, adherent)",0.97,> 2000,0.986,> 5000
"RERF-LC-Sq1 (lung squamous cell carcinoma, adherent)",0.941,> 2000,0.979,> 5000
"LoVo (large intestine, adherent)",0.977,> 2000,0.971,> 5000
"COLO-680N (oesophagus, adherent)",0.986,> 2000,0.983,> 5000
"HCC1419 (breast, adherent)",0.981,> 2000,0.935,> 5000
"Calu-3 (lung adenocarcinoma, adherent)",0.982,> 2000,0.983,> 5000
"OAW-28 (ovary, adherent)",0.977,> 2000,0.948,> 5000

Cell Line,AUC (PD-173074),IC50 (PD-173074) [nM],AUC (SB590885),IC50 (SB590885) [nM]
"PANC-04-03 (pancreas, adherent)",0.963,> 2000,0.952,> 5000
"EBC-1 (lung squamous cell carcinoma, adherent)",0.983,> 2000,0.978,> 5000
"CAL-27 (head and neck, adherent)",0.981,> 2000,0.976,> 5000
"BCPAP (thyroid, adherent)",0.986,> 2000,0.977,> 5000
"KP-2 (pancreas, adherent)",0.953,> 2000,0.943,> 5000
"OVCAR-5 (ovary, adherent)",0.981,> 2000,0.911,> 5000
"PEO1 (ovary, adherent)",0.987,> 2000,0.987,> 5000
"HOS (osteosarcoma, adherent)",0.953,> 2000,0.958,> 5000
"LCLC-97TM1 (large cell lung carcinoma, adherent)",0.927,> 2000,0.888,> 5000
"NCI-H1568 (lung adenocarcinoma, adherent)",0.98,> 2000,0.981,> 5000
"MOLT-16 (T-cell lymphoblastic leukaemia, suspension)",0.956,> 2000,0.949,> 5000
"PE/CA-PJ15 (head and neck, adherent)",0.981,> 2000,0.981,> 5000
"OVCA433 (ovary, adherent)",0.975,> 2000,0.985,> 5000
"NCI-H2023 (lung adenocarcinoma, adherent)",0.98,> 2000,0.976,> 5000
"PCI-15A (head and neck, adherent)",0.781,834,0.986,> 5000
"RPMI-2650 (head and neck, adherent)",0.959,> 2000,0.967,> 5000
"UACC-62 (melanoma, adherent)",0.986,> 2000,0.983,> 5000
"NCI-H2405 (lung adenocarcinoma, adherent)",0.985,> 2000,0.979,> 5000
"CP50-MEL-B (melanoma, adherent)",0.979,> 2000,0.695,1100
"Hs746T (stomach, adherent)",0.979,> 2000,0.974,> 5000
"Ca-Ski (cervix, adherent)",0.973,> 2000,–,–
"HT-1080 (fibrosarcoma, adherent)",0.989,> 2000,–,–
"MFE-319 (endometrium, adherent)",0.983,> 2000,–,–
"HT-29 (large intestine, adherent)",0.988,> 2000,–,–
"A549 (lung adenocarcinoma, adherent)",0.98,> 2000,–,–

Cell Line,AUC (PD-173074),IC50 (PD-173074) [nM],AUC (SB590885),IC50 (SB590885) [nM]
"RERF-GC-1B (stomach, adherent)",0.856,1920,–,–
"COLO-205 (large intestine, suspension)",0.914,> 2000,–,–
"NCI-H2110 (non-small cell lung carcinoma, adherent)",–,–,0.89,> 5000
"SNG-M (endometrium, adherent)",0.983,> 2000,–,–
"HCC-827 (lung adenocarcinoma, adherent)",–,–,0.969,> 5000
"CFPAC-1 (pancreas, adherent)",–,–,0.957,> 5000
"SK-MEL-30 (melanoma, adherent)",0.951,> 2000,–,–
"NCI-H520 (lung squamous cell carcinoma, adherent)",–,–,0.987,> 5000
"KYM-1 (rhabdomyosarcoma, adherent)",0.948,> 2000,–,–
"FU97 (stomach, adherent)",–,–,0.974,> 5000
"A375 (melanoma, adherent)",0.981,> 2000,–,–
"A172 (glioma, adherent)",0.806,975,–,–
"TE-4 (oesophagus, adherent)",–,–,0.981,> 5000
"SK-MEL-28 (melanoma, adherent)",0.954,> 2000,–,–
"HCT-116 (large intestine, adherent)",0.977,> 2000,–,–
"SW13 (adrenal gland, adherent)",0.987,> 2000,–,–
"MKN1 (stomach, adherent)",0.979,> 2000,–,–
"NCI-H358 (lung adenocarcinoma, adherent)",0.965,> 2000,–,–
"EMC-BAC-2 (lung adenocarcinoma, adherent)",0.967,> 2000,–,–
"UACC-893 (breast, adherent)",0.968,> 2000,–,–
"SU8686 (pancreas, adherent)",0.883,> 2000,–,–
"IGR-37 (melanoma, adherent)",0.979,> 2000,–,–

# Source: the supplement of paper PMC4967469
